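Following 48 hours of exposure in 96-well plates, responses at five concentrations were used to interpolate endpoints linearly. GI50 marks 50% less growth.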 The source holds more than one record for some entries. This list holds those alone. The source may hold further records. A record mostly stands for its own series of concentrations, which the source does not state; a value can be the end of its range. Marks in square brackets tell the records apart. The letters are not those of the source and start again with each entry.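 The concentration for full growth arrest is given as TGI.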
Tests used:
Test in all cases: NCI-60 cell line screen, 48 h
786-0 renal = tested on: 786-0 renal
A549 NSCLC = tested on: A549 NSCLC
ACHN renal = tested on: ACHN renal
BT-549 breast = tested on: BT-549 breast
CAKI-1 renal = tested on: CAKI-1 renal
CCRF-CEM leukemia = tested on: CCRF-CEM leukemia
COLO 205 colon = tested on: COLO 205 colon
DU-145 prostate = tested on: DU-145 prostate
EKVX NSCLC = tested on: EKVX NSCLC
HCC-2998 colon = tested on: HCC-2998 colon
HCT-116 colon = tested on: HCT-116 colon
HCT-15 colon = tested on: HCT-15 colon
HL-60(TB) leukemia = tested on: HL-60(TB) leukemia
HOP-62 NSCLC = tested on: HOP-62 NSCLC
HOP-92 NSCLC = tested on: HOP-92 NSCLC
HS 578T breast = tested on: HS 578T breast
HT29 colon = tested on: HT29 colon
IGROV1 ovarian = tested on: IGROV1 ovarian
K-562 leukemia = tested on: K-562 leukemia
KM12 colon = tested on: KM12 colon
LOX IMVI melanoma = tested on: LOX IMVI melanoma
M14 melanoma = tested on: M14 melanoma
MCF7 breast = tested on: MCF7 breast
MDA-N = tested on: MDA-N
MOLT-4 leukemia = tested on: MOLT-4 leukemia
NCI-H226 lung = tested on: NCI-H226 lung
NCI-H23 lung = tested on: NCI-H23 lung
NCI-H460 lung = tested on: NCI-H460 lung
NCI-H522 lung = tested on: NCI-H522 lung
OVCAR-3 ovarian = tested on: OVCAR-3 ovarian
OVCAR-8 ovarian = tested on: OVCAR-8 ovarian
PC-3 prostate = tested on: PC-3 prostate
RPMI-8226 leukemia = tested on: RPMI-8226 leukemia
SF-268 CNS = tested on: SF-268 CNS
SF-295 CNS = tested on: SF-295 CNS
SK-MEL-2 melanoma = tested on: SK-MEL-2 melanoma
SK-OV-3 ovarian = tested on: SK-OV-3 ovarian
SN12C renal = tested on: SN12C renal
SNB-19 CNS = tested on: SNB-19 CNS
SNB-75 CNS = tested on: SNB-75 CNS
SR leukemia = tested on: SR leukemia
SW-620 colon = tested on: SW-620 colon
T-47D breast = tested on: T-47D breast
TK-10 renal = tested on: TK-10 renal
U251 CNS = tested on: U251 CNS
UACC-257 melanoma = tested on: UACC-257 melanoma
UACC-62 melanoma = tested on: UACC-62 melanoma
UO-31 renal = tested on: UO-31 renal

SMILES: COc1cccc2c1C(=O)c1c(O)c3c(c(O)c1C2=O)C[C@@](O)(C(=O)CO)C[C@@H]3OC1CC(N)C(O)C(C)O1 (some centres undefined)
- TGI (786-0 renal): 250 nM, 3.82 µM, 8.29 µM, 11.6 µM [sample A] and 2.67 µM [sample B]
- TGI (A549 NSCLC): 250 nM, 2.64 µM, 295 nM [sample A] and 4.3 µM [sample B]
- TGI (ACHN renal): 1.06 µM [mean of 1637 tests] and 250 nM [mean of 2 tests] and 10.3 µM [mean of 3 tests]
- TGI (BT-549 breast): 250 nM, 1.59 µM, 1.84 µM, 2.61 µM [sample A] and 3.92 µM [sample B]
- TGI (CAKI-1 renal): 250 nM, 4.15 µM, 25 µM, > 55.6 µM [sample A] and 2.61 µM [sample B]
- TGI (CCRF-CEM leukemia): 250 nM, 2.06 µM, 16.2 µM, 11.4 µM [sample A] and 5.47 µM [sample B]
- TGI (COLO 205 colon): 250 nM [sample A, mean of 2 tests] and 1.14 µM [sample A, mean of 2473 tests] and 1.56 µM [sample A, mean of 3 tests] and 1.32 µM [sample A, mean of 4 tests] and 2.07 µM [sample B, mean of 3 tests]
- TGI (DU-145 prostate): 3.29 µM [sample A, mean of 1743 tests] and 250 nM, 17.6 µM [sample A, mean of 2 tests] and 2.4 µM [sample B, 1 test]
- TGI (EKVX NSCLC): 250 nM, 4.19 µM, 5.29 µM, 5.95 µM [sample A] and 1.52 µM [sample B]
- TGI (HCC-2998 colon): 250 nM, 1.21 µM, 1.05 µM, 2.61 µM [sample A] and 1.84 µM [sample B]
- TGI (HCT-116 colon): 250 nM, 6.88 µM, 4.94 µM, 15.1 µM [sample A] and 2.24 µM [sample B]
- TGI (HCT-15 colon): 17.6 µM [sample A, mean of 2550 tests] and 21.1 µM [sample A, mean of 3 tests] and > 72.9 µM [sample A, mean of 4 tests] and 45.6 µM [sample B, mean of 3 tests]
- TGI (HL-60(TB) leukemia): 193 nM, 1.51 µM, 1.26 µM, 3.05 µM [sample A] and 2.93 µM [sample B]
- TGI (HOP-62 NSCLC): 250 nM [sample A, mean of 2 tests] and 1.28 µM [sample A, mean of 2444 tests] and 589 nM [sample A, mean of 3 tests] and 5.3 µM [sample A, mean of 4 tests] and 1.84 µM [sample B, mean of 3 tests]
- TGI (HOP-92 NSCLC): 183 nM [sample A, 1 test] and 193 nM [sample A, mean of 2 tests] and 1.14 µM [sample A, mean of 2238 tests] and 3.24 µM [sample A, mean of 3 tests] and 2.25 µM [sample B, mean of 3 tests]
- TGI (HS 578T breast): 250 nM [sample A, 1 test] and 1.73 µM [sample A, mean of 2318 tests] and 1.26 µM [sample A, mean of 3 tests] and 5.11 µM [sample A, mean of 4 tests] and 354 nM [sample B, 1 test]
- TGI (HT29 colon): 4.99 µM, 7.36 µM, 1.33 µM [sample A] and 8.73 µM [sample B]
- TGI (IGROV1 ovarian): 19.7 nM, 22.9 µM [sample A, mean of 2 tests] and 5.04 µM [sample A, mean of 2426 tests] and 12.8 µM [sample A, mean of 4 tests] and 10.9 µM [sample B, mean of 3 tests]
- TGI (K-562 leukemia): 25 µM [sample A, 1 test] and 250 nM [sample A, mean of 2 tests] and 5.89 µM [sample A, mean of 2384 tests] and 11.9 µM [sample A, mean of 4 tests] and 4.65 µM [sample B, mean of 3 tests]
- TGI (KM12 colon): 250 nM, 4.35 µM, 2.06 µM, 11.6 µM [sample A] and 6.13 µM [sample B]
- TGI (LOX IMVI melanoma): 250 nM, 1.37 µM, 2.03 µM [sample A] and 1.3 µM [sample B]
- TGI (M14 melanoma): 250 nM [sample A, mean of 2 tests] and 1.21 µM [sample A, mean of 2503 tests] and 3.34 µM [sample A, mean of 3 tests] and 1.23 µM [sample A, mean of 4 tests] and 1.54 µM [sample B, mean of 3 tests]
- TGI (MCF7 breast): 225 nM, 4.77 µM, 9.85 µM, 9.39 µM
- GI50 (MDA-N): 184 nM [sample A, 1 test] and 281 nM [sample A, mean of 1586 tests] and 433 nM [sample A, mean of 3 tests] and 112 nM [sample B, 1 test]
- TGI (MOLT-4 leukemia): 250 nM, 428 nM [mean of 2 tests] and 773 nM [mean of 2407 tests] and 2.05 µM [mean of 4 tests]
- TGI (NCI-H226 lung): 179, 518, 322, 717 nM [sample A] and 355 nM [sample B]
- TGI (NCI-H23 lung): 250 nM, 869 nM, 627 nM, 1.12 µM [sample A] and 533 nM [sample B]
- GI50 (NCI-H460 lung): 22.2 nM [sample A, mean of 2 tests] and 7.22 nM [sample A, mean of 2385 tests] and 24.2 nM [sample A, mean of 4 tests] and < 25.3 nM [sample B, mean of 2 tests]
- TGI (NCI-H460 lung): 229 nM [sample A, mean of 2 tests] and 1.61 µM [sample A, mean of 2385 tests] and 1.13 µM [sample A, mean of 4 tests] and 1.38 µM [sample B, mean of 2 tests]
- TGI (NCI-H522 lung): 90.9 nM [sample A, mean of 2 tests] and 484 nM [sample A, mean of 2310 tests] and 546 nM, 374 nM [sample A, mean of 3 tests] and 1.29 µM [sample B, mean of 3 tests]
- TGI (OVCAR-3 ovarian): 4.73 µM, 2.8 µM, 8.64 µM [sample A] and 7.15 µM [sample B]
- TGI (OVCAR-8 ovarian): 250 nM, 4.77 µM, 1.17 µM, 2.6 µM [sample A] and 7.2 µM [sample B]
- TGI (PC-3 prostate): 2.98 µM, 2.04 µM, 10.3 µM [sample A] and 2.81 µM [sample B]
- TGI (RPMI-8226 leukemia): 250 nM, 1.58 µM, 3.67 µM, 2.32 µM [sample A] and 3.04 µM [sample B]
- TGI (SF-268 CNS): 250 nM [sample A, mean of 2 tests] and 1.87 µM [sample A, mean of 2484 tests] and 1.55 µM [sample A, mean of 3 tests] and 1.63 µM [sample A, mean of 4 tests] and 2.95 µM [sample B, mean of 3 tests]
- TGI (SF-295 CNS): 250 nM [sample A, mean of 2 tests] and 1.29 µM [sample A, mean of 2474 tests] and 2.14 µM [sample A, mean of 3 tests] and 1.53 µM [sample A, mean of 4 tests] and 2.75 µM [sample B, mean of 3 tests]
- TGI (SK-MEL-2 melanoma): 23.4 nM, 772 nM, 1.68 µM, 633 nM [sample A] and 538 nM [sample B]
- TGI (SK-OV-3 ovarian): 6.4 µM, 19.6 µM, 22 µM [sample A] and 5.24 µM [sample B]
- TGI (SN12C renal): 250 nM, 3.95 µM, 20.2 µM, 5.09 µM [sample A] and 15.8 µM [sample B]
- TGI (SNB-19 CNS): 250 nM, 3.96 µM, 3.67 µM, 3.13 µM [sample A] and 2.99 µM [sample B]
- TGI (SNB-75 CNS): 250 nM [sample A, mean of 2 tests] and 560 nM [sample A, mean of 2307 tests] and 1.39 µM [sample A, mean of 3 tests] and 468 nM [sample A, mean of 4 tests] and 1.26 µM [sample B, mean of 3 tests]
- TGI (SR leukemia): 250 nM, 871 nM, 25 µM, 1.63 µM
- TGI (SW-620 colon): 250 nM, 6.03 µM, 4.12 µM, 7.73 µM [sample A] and 5.72 µM [sample B]
- TGI (T-47D breast): 250 nM, 2.58 µM, 489 nM, 2.6 µM [sample A] and 656 nM [sample B]
- TGI (TK-10 renal): 243 nM, 4.96 µM, 4.64 µM, 10.7 µM [sample A] and 10.7 µM [sample B]
- TGI (U251 CNS): 250 nM, 3.7 µM, 374 nM, 3.74 µM [sample A] and 4.72 µM [sample B]
- TGI (UACC-257 melanoma): 207 nM, 1.11 µM, 1.38 µM, 756 nM [sample A] and 2.17 µM [sample B]
- TGI (UACC-62 melanoma): 250 nM [sample A, mean of 2 tests] and 352 nM [sample A, mean of 2407 tests] and 1.61 µM [sample A, mean of 3 tests] and 546 nM [sample A, mean of 5 tests] and 491 nM [sample B, mean of 3 tests]
- TGI (UO-31 renal): 250 nM [sample A, mean of 2 tests] and 4.75 µM [sample A, mean of 2444 tests] and 1.7 µM, 4.65 µM [sample A, mean of 3 tests] and 8.51 µM [sample B, mean of 3 tests]

Reference: PubChem BioAssay (NCI)
